{"source": "the RNAGym collection of RNA variant scans (doi:10.7554/elife.90254)", "parents": {"B1": {"name": "LINE1-mini (parent)", "chain": "GGCAGAGCUCAACACAGCGUGGCAAAGUGGCUGUGGCUAGACUGCC"}}, "note": "Read counts are not given, so values of variants with three or more changes are uncertain."}
{"variants_of": "B1", "assay": "self-cleavage, relative activity (ratio to wild type); higher = more cleavage; in vitro, sequencing; the parent is a self-cleaving ribozyme"}
{"variant": "GGCAGAGCUCACCACAGUGUGGCAAAGUGGCUGGGGCUAGACUGCC", "note": "[A12C C18U U34G]", "self-cleavage": 0}
{"variant": "GGCAGAGCUCAACACAGCGGGCCAAAGUGGCUGUUGCUAGACUGCC", "note": "[U20G G22C G35U]", "self-cleavage": 0.03}
{"variant": "GGCAGAGCUCAAAACAGCGCGGCAAAGUGGCUGUGGAUAGACAGCC", "note": "[C13A U20C C37A U43A]", "self-cleavage": 0.06}
{"variant": "UACAAAGCGCCCCACAGCGUGGCAAAGUGGCUGUGGCUACAUUACC", "note": "[G1U G2A G5A U9G A11C A12C G40C C42U G44A]", "self-cleavage": 0.01}
{"variant": "GGCAGCGCUCAACACAGCGUGGCAAAGUGGCAGGGGCUAGACUGCC", "note": "[A6C U32A U34G]", "self-cleavage": 0}
{"variant": "GGCAGAGCUCAACACAUCGUGGCCAAGUGGCUGUCGCUAGACUGCC", "note": "[G17U A24C G35C]", "self-cleavage": 0.06}
{"variant": "GUAAGAGCUCAACAUAGCGUGGUAAAGUGGUUGUGGCUAGACUGAC", "note": "[G2U C3A C15U C23U C31U C45A]", "self-cleavage": 0.03}
{"variant": "GGCACAGCUCAACAAAGCGUGGAAAAGUGGCUGUGGCUCGACUGCC", "note": "[G5C C15A C23A A39C]", "self-cleavage": 0.01}
{"variant": "GGCAGAGCUCAACACAGCGUGGCAUAGUGGCUAUAGCUAGACUGCC", "note": "[A25U G33A G35A]", "self-cleavage": 0.09}
{"variant": "GGCAGAGCUAAACACAGCGUGGCCAAGUGGCUGUGGCUAGGCUGCC", "note": "[C10A A24C A41G]", "self-cleavage": 0.11}
{"variant": "GGCAGAGCUCAACACAGCGUGACAAAGUGGCUGUGGCUGGUCAGCC", "note": "[G22A A39G A41U U43A]", "self-cleavage": 0.04}
{"variant": "GGCAGAGCUGAACACAGCGUGGCUACGUGGCUGUGGGUAUACUGCC", "note": "[C10G A24U A26C C37G G40U]", "self-cleavage": 0.02}
{"variant": "GGCAGAGCUCAACACAGCAUGGAAAAGUGGCUGUGGCUAGACCGCC", "note": "[G19A C23A U43C]", "self-cleavage": 0.32}
{"variant": "GCCAGAGCUCCACACAGCGUGGCAAAGUGGCUGUGUCUAGACUUCA", "note": "[G2C A11C G36U G44U C46A]", "self-cleavage": 0.01}
{"variant": "GGCAGAGCUCAACAUAGCAUGGCCAAGUAGCUGUGGCUAGACUGCC", "note": "[C15U G19A A24C G29A]", "self-cleavage": 0.13}
{"variant": "GGCAGAGCUCAACACCGCGUAACAAAGUGGCUGUGGCUAGACUGCC", "note": "[A16C G21A G22A]", "self-cleavage": 0.06}
{"variant": "GGCAGAGCUCAACACAGCGUGGCAAAGUGGCUGUGGCAACGCUGCC", "note": "[U38A G40C A41G]", "self-cleavage": 0.11}
{"variant": "GGCAGAGCUCAAUACAGCGUGACAAAGUGGCUUUGGCUAGACUGCC", "note": "[C13U G22A G33U]", "self-cleavage": 0.14}
{"variant": "GGCCGAGCUAAACACAGCGUGGCAAAGCGGCUGUGGCUAGACUGCC", "note": "[A4C C10A U28C]", "self-cleavage": 0.02}
{"variant": "GGCAGAGCUCAACACAGCGUGGCAAAGUGACUGUGGCUCAACUGCC", "note": "[G30A A39C G40A]", "self-cleavage": 0.17}
{"variant": "GGCAGAGCUCAAAACAGGGUGGCAAAGUGGCUGUGGCUCGACUACC", "note": "[C13A C18G A39C G44A]", "self-cleavage": 0.08}
{"variant": "CGCAGAGCUCAACCCAGCGUGGCAGAGUGGCUCUGGCUAGACUGCC", "note": "[G1C A14C A25G G33C]", "self-cleavage": 0.03}
{"variant": "GGUAGAUCUCAAUCCAGCGUGGCAAAGUGACGUUGGCUAGACUGCC", "note": "[C3U G7U C13U A14C G30A U32G G33U]", "self-cleavage": 0.06}
{"variant": "GGCAGCGCUCAACACAGCGUGGCAAAAUCGCUGGGGCUUGACUGCC", "note": "[A6C G27A G29C U34G A39U]", "self-cleavage": 0.15}
{"variant": "GGUGGAGUUCAACGCAGCGUGAUAAAGUGGCUGUGGCUAGACUGCC", "note": "[C3U A4G C8U A14G G22A C23U]", "self-cleavage": 0.08}
{"variant": "GGCAGAGCUCAACACAGCGUGGUAAAGUGGGUGUGACUGGACUCCC", "note": "[C23U C31G G36A A39G G44C]", "self-cleavage": 0.02}
{"variant": "GGCAGAGCUCAACACAGCGUAGAAAAGUGGCUGUAGCUAGAGUGCC", "note": "[G21A C23A G35A C42G]", "self-cleavage": 0.05}
{"variant": "GGCCGAGAUCAACACAGCGUGGCAAUGUGGCUGUGGCUAGAAUGCC", "note": "[A4C C8A A26U C42A]", "self-cleavage": 1.45}
{"variant": "GGCAGAGCUCAAAACAGCGUCGCAAAGUGGCUGUCGCGAGACUGCC", "note": "[C13A G21C G35C U38G]", "self-cleavage": 0}
{"variant": "GGCAGAGAUCAACACAGCGUGGCAAAGUGGCUGUUGCUGGACUGCC", "note": "[C8A G35U A39G]", "self-cleavage": 0.11}
{"variant": "GGCAGAUCUCAACACAGCGUGGCAAAGUAGCUUUGGCUAGACAGCC", "note": "[G7U G29A G33U U43A]", "self-cleavage": 0.04}
{"variant": "GGUAGAUCCCGACCCAGCGUGGCAAAGUGGUUGUGGCUAGACUGCC", "note": "[C3U G7U U9C A11G A14C C31U]", "self-cleavage": 0.01}
{"variant": "ACCAGAGCUCAACACAGCGUGGCAAAGUUGCUGUGGCUAGAGUGCC", "note": "[G1A G2C G29U C42G]", "self-cleavage": 0.05}
{"variant": "GGCAGAGCUCACCACAGCGUGGCGAAGGGGCUGUGGCUAGACUGCC", "note": "[A12C A24G U28G]", "self-cleavage": 0.05}
{"variant": "GGCAGAGCUCAACCAAGCGUGCCAAUGUGGCUGUGGCUAGACUGCC", "note": "[A14C C15A G22C A26U]", "self-cleavage": 0.03}
{"variant": "GGCAGAACUCAACACAGCGUGGCAAAGUGGUUGUGGCUAGACUGUC", "note": "[G7A C31U C45U]", "self-cleavage": 0.07}
{"variant": "GGCAGAGCUCAACACGGCGUGGCAACCUGGCUGUGGCUAGACUGCC", "note": "[A16G A26C G27C]", "self-cleavage": 0.34}
{"variant": "GACAGAGCUCAACAAAGCGUGGUUAAGUGGCUGAGACUAGACUGCA", "note": "[G2A C15A C23U A24U U34A G36A C46A]", "self-cleavage": 0.17}
{"variant": "GGCAGAGCUCAACACAUCGUGGCAACCUGGCUGUGGCUAGACUGCC", "note": "[G17U A26C G27C]", "self-cleavage": 0.02}
{"variant": "GGCAAAGCUCAACACAGCUUGGCAAAGUGGUUGUGGCUAGACUGCC", "note": "[G5A G19U C31U]", "self-cleavage": 0.06}
{"variant": "GUCAGAGCUCAACCCACCGUGGCAAAGUGGCUGUGGCUAGACUGCA", "note": "[G2U A14C G17C C46A]", "self-cleavage": 0.04}
{"variant": "GGCAGAGCUCAAUACAGCGUGGCAGAGUGGCUGUUGCUAGGCUGCC", "note": "[C13U A25G G35U A41G]", "self-cleavage": 0.08}
{"variant": "GGCAGAGCUCAACACGGCCUGGCAAAGUGGCUGGGGCGAGACUGCC", "note": "[A16G G19C U34G U38G]", "self-cleavage": 0.02}
{"variant": "GGCAGAGCUCAACACAGCGUGGCAAAUUGGCUUUGUCUAGACUGCC", "note": "[G27U G33U G36U]", "self-cleavage": 0.1}
{"variant": "GGCAGAGCUCCCCACAGCGUGGCAAAGUGGCUGUGGCUAAACUUCC", "note": "[A11C A12C G40A G44U]", "self-cleavage": 0.01}
{"variant": "GGCAGAGAUCAACACAGCGUGGCGAAGUGGCUGUGGCUAGAAUGCC", "note": "[C8A A24G C42A]", "self-cleavage": 0.22}
{"variant": "GGCAGAGCUCAACACUGCUUGGUAAAGUGGCUGUGGCUAGUCUGCC", "note": "[A16U G19U C23U A41U]", "self-cleavage": 0.13}
{"variant": "GGGAGAUCUCAACACAGAGUGGCAAAGUGGCUCUGGCUAGACUGCC", "note": "[C3G G7U C18A G33C]", "self-cleavage": 0.04}
{"variant": "UGCAGAGCUUAACACAGCGAGGAAAAGUGGCUGUGGCUAGACUGCC", "note": "[G1U C10U U20A C23A]", "self-cleavage": 0.08}
{"variant": "GGCAGAGGUCAAAACAGCGUGGCAAAGUGGCUGUGGCUAGACUGAC", "note": "[C8G C13A C45A]", "self-cleavage": 0.03}
{"variant": "GGCAGAGCUCAACACAACGGGGCAUAGUAGGUGUGGCUAGACUGCC", "note": "[G17A U20G A25U G29A C31G]", "self-cleavage": 0.11}
{"variant": "GGCCGAGCUCUAAACAGCGUGGCAAAGUGGCUUGGGCUAGCCUGCC", "note": "[A4C A11U C13A G33U U34G A41C]", "self-cleavage": 0.01}
{"variant": "GGCAGCGCUCAACACAGCCUGGCAAACUGGCUGUGGCUAGACUGCC", "note": "[A6C G19C G27C]", "self-cleavage": 0.15}
{"variant": "GGCAGAGCUCAACUCAGCGUAGCAAAGUGGCUGUGGGGAGACUGCC", "note": "[A14U G21A C37G U38G]", "self-cleavage": 0.02}
{"variant": "GGGAGAGCUCAACACAGCGUGGCAAAGUGGAUGUGGAUAGACUGCC", "note": "[C3G C31A C37A]", "self-cleavage": 0.2}
{"variant": "GCCUGAGCUCAAAACAGCAUGGCAAAGUGGCUGUGGCUAGAAUGCC", "note": "[G2C A4U C13A G19A C42A]", "self-cleavage": 0.11}
